Measurements as given in PubChem BioAssay AID624296 (National Center for Advancing Translational Sciences (NCATS), 2012).
About 9,900 (2.8%) of roughly 350,000 compounds were called active. Inconclusive results, whose numbers are uncertain, are shown with a selection of clear calls. Calls follow the shape of the dose curve; as a rule, active = well fitted activation curve with a large enough effect; inconclusive = small, poorly fitted or top-dose-only effect; inactive = no such curve, though single readings can be large or run the other way. Potencies of inconclusive entries are left out as doubtful fits.

Assay: A quantitative high throughput screen for small molecules that induce DNA re-replication in MCF 10a normal breast cells. Also: nearly all actives have a fitted effect of over 50% in size. As to activity, positive = re-replication: % of control where 0% means no effect.
Settings: MCF 10A DNA re-replication, Hoechst nuclear intensity, 48 h; activity, positive = re-replication: at 46.1 µM (top of the series)
Potency is read from the fitted curve at half-maximal effect; tags tell the direction and shape of the fitted curve.

Compound	activity, positive = re-replication	Potency
Cc1cccc(NC(=O)c2cc3n(n2)C(C(F)(F)F)CC(C2CC2)N3)c1C (centres undefined)	inactive: -7.13%	
O=C(Nc1ccc(N2CCCCC2)cc1)c1cncc(Br)c1	inactive: 0.511%	
Cc1c(Cl)cccc1NC(=S)NC(=O)c1cncc(Br)c1		inconclusive [activator, full curve, poor fit]
CN(Cc1ccccc1)C(=O)c1ccco1	inactive: -0.476%	
CCOc1ccc(-c2nnn(CC(=O)NCc3cccs3)n2)cc1		inconclusive [activator, single point]
COc1ccc(-c2sc3ccccc3c2/C=C/c2ccc(N)cc2)cc1		inconclusive [activator, single point]
O=C(c1ccc(C(F)(F)F)cc1)C1CCCN(C(=O)CCc2ccncc2)C1 (centres undefined)		inconclusive [activator, partial curve, poor fit]
COc1ccc(C(c2c(O)ccc3ccccc23)N2CCOCC2)c(OC)c1 (centres undefined)		active: 3.26 µM
CCOc1ccc(CN2CCN(Cc3cccc4c3OCO4)CC2CCO)cc1 (centres undefined)	inactive: 7.15%	
COc1cc(C=C(c2nc3ccccc3s2)c2nc3ccccc3s2)ccc1O		active: 20.6 µM
CC(C)=CCC/C(C)=C/CNC(=O)C[C@H]1C[C@H](C(=O)N(C(C)C)C(C)C)[C@@]2(C)c3[nH]c4cc(-c5ccco5)ccc4c3CCN2C1=O		inconclusive [activator, partial curve]
O=C1CCC/C(=N\NC(=O)c2ccc(COc3ccccc3-c3ccccc3)cc2)C1		active: 9.2 µM
COC(=O)c1ccccc1NC(=O)CN(C)S(=O)(=O)c1ccc(OC)cc1	inactive: 0.429%	
CC(=O)Nc1ccccc1NC(=O)C/C(C)=N/NC(=O)c1ccc([N+](=O)[O-])c(Cl)c1		inconclusive [activator, partial curve, poor fit]
CN1CCN(c2nc(-c3ccccc3)nc(-c3ccccc3)c2C#N)CC1		inconclusive [activator, single point]
O=C(CN1CCN(S(=O)(=O)c2ccc(F)cc2)CC1)Nc1cc(C(F)(F)F)ccc1Cl		inconclusive [activator, partial curve, poor fit]
COc1cc(C(=O)OCC(=O)Nc2sccc2C(N)=O)cc(OC)c1OC		inconclusive [activator, partial curve]
CC(C)(C)c1nc(SCC(=O)NNC(=O)c2ccccc2)c2ccccc2n1		inconclusive [activator, single point]
CCOC(=O)c1sc(N/N=C/c2ccccc2)nc1C		inconclusive [activator, single point]
Cc1cc(C(=O)CSc2nc(N)cc(=O)[nH]2)c(C)n1CCc1ccc(F)cc1	inactive: 23.4%	
CC(C)(C)NC(=O)CSc1nc2scc(-c3ccccc3)c2c(=O)[nH]1		inconclusive [activator, partial curve, poor fit]
Cc1cc(OCC(=O)Nc2ccc(Br)cc2)cc2c1C(=O)CC(C)(C)O2		inconclusive [activator, single point]

Compound	activity, positive = re-replication	Potency
COC(=O)c1ccc(NC(=O)c2sc3nc(-c4ccccc4)cn3c2C)cc1		inconclusive [activator, partial curve, poor fit]
CC(C)(C)OC(=O)N(CCc1ccccc1)Cc1ccccc1OCc1cccc(NC(=O)C2CCCC2)c1	inactive: 17.1%	
N#CC1=C(N)NC(SCC(=O)c2ccc(Cl)cc2)=C(C#N)C12CCCC2	inactive: 4.65%	
Cc1nnc(C)n1/N=C/c1ccc(C(C)C)cc1		inconclusive [activator, single point]
O=C(N[C@H]1/C=C\[C@@H](O)CCCC1)OCc1ccccc1	inactive: -1.68%	
CCNC(=S)NNC(=O)c1cc(C)on1	inactive: 12.3%	
O=C(CCS(=O)(=O)c1ccccc1)NC12CC3CC(CC(C3)C1)C2		inconclusive [activator, single point]
Cc1ccc(NC(=O)c2cc(Cl)nc3ccccc23)cc1	inactive: 2.3%	
CCn1c(=O)c(CCC(=O)NCC2CCCO2)c(C)c2c(C)nn(-c3ccc(C)cc3)c21 (centres undefined)	inactive: -18.2%	
COc1cc2c(cc1/C=C1/NC(=O)N(CC(=O)Nc3ccccc3)C1=O)OCO2		inconclusive [activator, full curve, poor fit]
COc1ccc(N2CCC(CNC(=S)Nc3cc(C)cc(C)c3)C2)cc1 (centres undefined)		inconclusive [activator, single point]
CCn1c(O)c(/C=N/NC(=O)c2ccncc2)c(=O)n(CC)c1=S	inactive: 20.3%	
COc1ccc(N2C(=O)/C(=C\c3ccco3)N=C2SCC(N)=O)cc1Cl		inconclusive [activator, single point]
COc1ccc(OC)c(NC(=O)Cn2c(C)nc3ccccc3c2=O)c1	inactive: 1.09%	
Cc1ccc(S(=O)(=O)NN2C(=O)c3ccccc3NC2c2ccccn2)cc1 (centres undefined)		inconclusive [activator, partial curve, poor fit]
CC1CN(c2nc(-c3ccccc3)nc3ccccc23)CC(C)O1 (centres undefined)		inconclusive [activator, single point]
CCOC(=O)c1c(NC(=S)NC(=O)c2ccc(Cn3cc(Cl)cn3)o2)sc2c1CCCCC2		inconclusive [activator, full curve, poor fit]
C=C1CCN([C@@H](C)C(=O)OCc2ccc(C)cc2)S(=O)(=O)c2ccccc21		inconclusive [activator, partial curve, poor fit]
COC(=O)C1=C(C)N(Cc2ccco2)C(=O)/C1=C\c1ccc([N+](=O)[O-])cc1		inconclusive [activator, single point]
COc1ccc(C2NCCc3c2[nH]c2ccccc32)cc1CN1CCc2cc(OC)c(OC)cc2C1C (centres undefined)		inconclusive [activator, single point]
CC(=O)c1cc2c(cc1NC(=O)CSc1nc3ccc(C)cc3[nH]1)OCO2	inactive: 5.56%	
CCN(C(=O)CCN1C(=O)/C(=C/c2ccccc2)SC1=S)C1CCS(=O)(=O)C1 (centres undefined)		inconclusive [activator, single point]
